Reference: PubChem BioAssay AID504333 (National Center for Advancing Translational Sciences (NCATS), 2011)
Several values for one entry are separate records, joined by “and”; a condition that tells them apart may be missing. Equal entries are not always repeated. Among all 360,000 compounds or so, about 16,000 (4.4%) were called active. The shares of active, inactive and inconclusive entries below differ from those in the screen. The call rests on the fitted dose curve; in most records, active means well fitted inhibition curve with a large enough effect; inconclusive means small, poorly fitted or top-dose-only effect; inactive means no such curve, though single readings can be large or run the other way. Where the call is inconclusive, the potency comes from a doubtful curve fit.

What follows are molecules tested against Bromodomain adjacent to zinc finger domain protein 2B (Homo sapiens) (UniProt Q9UIF8) (assay: qHTS Assay for Inhibitors of BAZ2B). Settings: AlphaScreen BAZ2B-H3K14Ac peptide displacement; series mostly up to 114 µM.
In short: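 In this displacement format the biotinylated H3(5-23) peptide acetylated at Lys14 serves as ligand at 50 nM, with BAZ2B at 50 nM in PBS pH 7.4 containing 0.01% Tween-20. Donor and acceptor beads are 10 ug/mL final.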
Further: nearly all actives have a fitted effect of over 60% in size.
Potency means the concentration at half of the fitted maximal effect; tags describe the fitted curve by direction and shape.

UniProt Q9UIF8, sequence (Q9UIF8 whole entry, looked up, the tested form may be a part): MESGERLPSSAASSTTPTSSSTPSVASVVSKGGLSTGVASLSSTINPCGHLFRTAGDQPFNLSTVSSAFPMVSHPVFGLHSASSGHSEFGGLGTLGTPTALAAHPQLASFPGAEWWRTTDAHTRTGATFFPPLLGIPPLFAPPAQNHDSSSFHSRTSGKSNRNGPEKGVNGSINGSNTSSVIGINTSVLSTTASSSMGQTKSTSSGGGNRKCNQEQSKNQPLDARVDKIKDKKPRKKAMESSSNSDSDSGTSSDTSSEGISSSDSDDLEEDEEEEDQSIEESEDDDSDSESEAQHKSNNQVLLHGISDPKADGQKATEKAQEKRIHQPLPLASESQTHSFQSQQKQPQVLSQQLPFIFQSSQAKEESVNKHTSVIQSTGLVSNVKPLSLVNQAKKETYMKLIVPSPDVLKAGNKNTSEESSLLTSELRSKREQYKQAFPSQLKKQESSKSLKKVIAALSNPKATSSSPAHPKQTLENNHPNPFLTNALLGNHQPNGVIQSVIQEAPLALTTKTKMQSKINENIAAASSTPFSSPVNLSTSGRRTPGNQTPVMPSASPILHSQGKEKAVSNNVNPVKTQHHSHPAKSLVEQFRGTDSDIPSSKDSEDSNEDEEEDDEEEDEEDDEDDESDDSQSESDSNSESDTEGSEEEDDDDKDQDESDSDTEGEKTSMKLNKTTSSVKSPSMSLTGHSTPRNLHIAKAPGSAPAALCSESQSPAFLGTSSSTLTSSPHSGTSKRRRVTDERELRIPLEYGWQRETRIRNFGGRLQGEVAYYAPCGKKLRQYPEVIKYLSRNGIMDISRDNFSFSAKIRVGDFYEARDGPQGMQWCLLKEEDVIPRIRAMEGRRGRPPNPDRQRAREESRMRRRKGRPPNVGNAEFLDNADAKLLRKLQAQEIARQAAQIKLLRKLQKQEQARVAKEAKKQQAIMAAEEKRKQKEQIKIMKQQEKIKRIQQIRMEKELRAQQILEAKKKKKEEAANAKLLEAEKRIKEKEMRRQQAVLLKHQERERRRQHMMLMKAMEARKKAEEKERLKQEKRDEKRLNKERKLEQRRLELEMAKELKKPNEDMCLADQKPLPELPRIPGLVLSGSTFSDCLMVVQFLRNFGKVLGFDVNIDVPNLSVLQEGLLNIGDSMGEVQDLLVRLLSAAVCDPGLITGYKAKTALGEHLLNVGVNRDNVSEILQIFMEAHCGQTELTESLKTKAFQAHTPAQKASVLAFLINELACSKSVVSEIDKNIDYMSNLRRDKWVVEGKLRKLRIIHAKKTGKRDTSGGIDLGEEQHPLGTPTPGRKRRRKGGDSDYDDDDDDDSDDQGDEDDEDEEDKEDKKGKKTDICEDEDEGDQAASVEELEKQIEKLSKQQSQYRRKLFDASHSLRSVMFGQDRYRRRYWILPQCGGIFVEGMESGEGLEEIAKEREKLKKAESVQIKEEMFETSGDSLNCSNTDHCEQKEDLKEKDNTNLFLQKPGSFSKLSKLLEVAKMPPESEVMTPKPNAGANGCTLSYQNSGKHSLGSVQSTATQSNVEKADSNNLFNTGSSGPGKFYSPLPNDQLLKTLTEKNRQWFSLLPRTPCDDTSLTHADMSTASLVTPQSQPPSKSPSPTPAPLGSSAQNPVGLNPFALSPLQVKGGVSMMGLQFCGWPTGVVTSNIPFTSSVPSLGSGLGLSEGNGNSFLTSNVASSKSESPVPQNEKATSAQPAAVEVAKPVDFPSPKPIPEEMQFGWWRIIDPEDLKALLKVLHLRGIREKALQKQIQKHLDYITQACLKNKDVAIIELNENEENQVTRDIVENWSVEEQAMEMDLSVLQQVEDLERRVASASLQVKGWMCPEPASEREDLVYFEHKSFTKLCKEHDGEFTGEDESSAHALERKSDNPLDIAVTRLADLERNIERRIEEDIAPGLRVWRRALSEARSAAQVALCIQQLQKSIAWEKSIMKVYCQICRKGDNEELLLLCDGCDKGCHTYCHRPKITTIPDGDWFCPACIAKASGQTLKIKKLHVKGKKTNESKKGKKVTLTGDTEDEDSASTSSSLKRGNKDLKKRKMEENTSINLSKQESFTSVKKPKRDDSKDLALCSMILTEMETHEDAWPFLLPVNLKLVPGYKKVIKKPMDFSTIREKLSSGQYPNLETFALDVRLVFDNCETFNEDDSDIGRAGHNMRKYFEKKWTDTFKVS

SMILES	Potency
Cc1nc(Cl)cc(N/N=C/c2ccc(O)cc2O)n1	active: 35.5 µM
COC(=O)c1scc(-c2ccc(C)cc2)c1S(=O)(=O)N1CCN(c2ccc(OC)cc2)CC1	inconclusive: 17.8 µM [inhibitor, full curve]
CNC(CC(=O)c1ccc([N+](=O)[O-])cc1)C(Cl)(Cl)Cl (configuration not stated)	inconclusive: 25.1 µM [inhibitor, full curve]
O=[N+]([O-])c1ccc(N2CCN(Cc3cccc([N+](=O)[O-])c3)CC2)cc1	inconclusive: 44.7 µM [inhibitor, partial curve]
COc1ccc2oc(C(=O)OC(C)C(=O)N(C)c3ccccc3)c(C)c2c1 (configuration not stated)	inconclusive: 89.1 µM [inhibitor, single point]
CCn1cnc2cc(NCc3ccc(OC)cc3)ccc21	inconclusive: 70.8 µM [inhibitor, single point]
COc1cccc(C(=O)N2CCN(C3CCCCC3)CC2)c1	inconclusive: 89.1 µM [inhibitor, single point]
O=C(c1ccc(N2CCCC2=O)cc1)N1CCOCC1	inactive
C(=C\c1ccccc1)/CSc1nnc(-c2ccccc2)n1Cc1ccco1	inconclusive: 89.1 µM [inhibitor, single point]
Cc1cc(C)cc(NC(=S)NCCN(C2CCCCC2)C2CCCC2)c1	inconclusive: 39.8 µM [inhibitor, partial curve]
O=C(NCCN1CCN(c2cccc(Cl)c2)CC1)C1COc2ccccc2C1 (configuration not stated)	inactive
CCc1c(C(=O)NCc2ccc3c(c2)OCO3)[nH]c(C)c1C(C)=O	inconclusive: 89.1 µM [inhibitor, single point]
O=C(/C=C/c1ccco1)c1ccc(NC(=O)C23CC4CC(CC(C4)C2)C3)cc1	active: 35.5 µM
COC(=O)C1(C)NC(=O)c2ccccc2N1 (configuration not stated)	inactive
Cc1cc(=O)oc2c(CN3CCC(C)CC3)c(O)c(Cl)cc12	inconclusive: 79.4 µM [inhibitor, single point]
O=C(Nc1ccccc1)Nc1cc(Cl)cc(Cl)c1	inconclusive: 89.1 µM [inhibitor, single point]
COCCn1c(-c2ccc(OC)cc2)c(-c2ccc(OC)cc2)oc1=O	active: 35.5 µM
COC1(OC)N=C(N)C2(C#N)C(c3ccc4c(c3)OCO4)C12C#N (configuration not stated)	inconclusive: 25.1 µM [inhibitor, single point]
CC1CCN(CC(=O)Nc2ccc(N3CCCCCC3)cc2)CC1	active: 20 µM
COc1ccc(C)cc1-n1c(SCC(=O)NCC2CCCO2)nc2c([nH]c3ccccc32)c1=O (configuration not stated)	inconclusive: 89.1 µM [inhibitor, single point]
COc1ccc(OC)c(NS(=O)(=O)c2ccc3[nH]c4c(c3c2)CCCCC4)c1	inconclusive: 39.8 µM [inhibitor, single point]
O=C(Nc1nc(=S)ss1)c1ccc(Cl)cc1Cl	inactive
O=C(NC(NC(=S)Nc1ccc(Cl)cc1Cl)C(Cl)(Cl)Cl)c1cccc([N+](=O)[O-])c1 (configuration not stated)	inconclusive: 89.1 µM [inhibitor, single point]
Cc1ccc(C(=O)NCCCNc2ccccc2[N+](=O)[O-])cc1	inconclusive: 44.7 µM [inhibitor, partial curve]

SMILES	Potency
Oc1ccc(Nc2nc3ccccc3nc2Nc2ccc(O)cc2)cc1	active: 50.1 µM
CC(=O)c1ccccc1NCC(=O)Nc1ccc(C)cc1	inconclusive: 89.1 µM [inhibitor, single point]
Nc1ccccc1Nc1ccncc1[N+](=O)[O-]	inactive
Cc1onc(-c2c(F)cccc2Cl)c1C(=O)Nc1nccs1	inconclusive: 79.4 µM [inhibitor, single point]
CCS(=O)(=O)n1nc(-c2ccc(Cl)cc2)nc1SC	inactive
N#C/C(=C(\O)c1cc(Cl)sc1Cl)c1nc2ccccc2[nH]1	active: 70.8 µM
CNC(=O)C1CCC(Cn2c(=O)c3sccc3n(CC(=O)Nc3ccc(C)c(F)c3)c2=O)CC1 (configuration not stated)	inactive
CC(=O)c1nc2ccccc2n1S(=O)(=O)c1ccc(C)cc1	inconclusive: 79.4 µM [inhibitor, single point]
CCCNC(=O)C1CC2Cn3c(nc4ccccc43)C2N1C (configuration not stated)	inconclusive: 89.1 µM [inhibitor, single point]
Cc1ccc(Cl)cc1N1CCN(C(=O)c2cc3c(=O)[nH]c4ccccc4c3n2C)CC1	inconclusive: 0.631 µM [inhibitor, full curve, poor fit]
O=c1[nH][nH]c(-c2ccccc2O)c1C(C[N+](=O)[O-])c1ccc(Br)cc1 (configuration not stated)	inconclusive: 70.8 µM [inhibitor, single point]
COc1ccc(CCNC(=O)CSc2nnc(Cc3csc(N)n3)n2C)cc1OC	active: 22.4 µM
Cc1ccccc1NC(=O)Cc1nnc(SCC(=O)c2ccc(Br)cc2)n1C	inconclusive: 7.08 µM [inhibitor, single point]
O=[N+]([O-])c1ccc(-c2csc(N/N=C/c3cccnc3)n2)cc1	inconclusive: 79.4 µM [inhibitor, single point]
CC(C)OCCCN(CC(O)c1ccccc1)CC(O)c1ccccc1 (configuration not stated)	inconclusive: 89.1 µM [inhibitor, single point]
Cc1ccc2c(=O)cc(C(=O)N(Cc3ccc(N(C)C)cc3)C3CCS(=O)(=O)C3)oc2c1 (configuration not stated)	inconclusive: 50.1 µM [inhibitor, partial curve]
S=C(Nc1ccc(Cl)cc1)c1sc(N2CCCCC2)nc1N1CCOCC1	inconclusive: 3.55 µM [inhibitor, full curve, poor fit]
CCOC(=O)c1c(N)sc(C(C)=O)c1C	inconclusive: 89.1 µM [inhibitor, single point]
Cc1nc(NC(=O)c2ccccc2)sc1-c1csc(Nc2cccc(Cl)c2)n1	inconclusive: 50.1 µM [inhibitor, partial curve]
COc1ccc(N=C2NN=C(c3c(C)[nH]c4ccccc34)CS2)cc1	active: 39.8 µM
COc1ccc(CNC(=O)/C=C/c2ccc(S(=O)(=O)NCc3ccco3)cc2)cc1OC	inconclusive: 89.1 µM [inhibitor, single point]
O=C(O)c1cc(N/N=C/C=C/c2ccccc2[N+](=O)[O-])ccc1Cl	inconclusive: 39.8 µM [inhibitor, partial curve]
CC1CC(C)(C)NC(=S)S1 (configuration not stated)	inactive
CSc1ccc(CCNC(=O)CN2C(=O)c3cccnc3Oc3ccc(C)cc32)cc1	inconclusive: 89.1 µM [inhibitor, single point] and inconclusive: 70.8 µM [inhibitor, partial curve]

SMILES	Potency
CCc1ccc(NC(=O)Nc2cccs2)cc1	inconclusive: 70.8 µM [inhibitor, single point]
COc1ccc(OC)c(Nc2nc(NCc3ccco3)c3ccccc3n2)c1	active: 39.8 µM
O=C(NN=C1CCCC1)c1ccccc1O	inactive
COc1cccc(N2CCN(C(=O)C3CCN(S(=O)(=O)c4c(C)noc4C)CC3)CC2)c1	inactive
O=c1cc(CSc2nnc(COc3ccccc3Cl)o2)nc2sccn12	inconclusive: 50.1 µM [inhibitor, partial curve]
COc1cccc(-c2nc(CS(=O)(=O)CC(=O)Nc3c(C)cc(C)cc3C)c(C)o2)c1	inconclusive: 89.1 µM [inhibitor, single point]
Cn1c(=O)c2c(nc3n2CCS3)n(C)c1=O	inactive
O=c1[nH]c2c(s1)C(c1ccc(O)cc1)C1C3CCC(C3)C1S2 (configuration not stated)	inconclusive: 89.1 µM [inhibitor, single point]
O=C(CC1C(=O)NCCN1Cc1ccc(-c2ccccc2)cc1)NCCCn1ccnc1 (configuration not stated)	inactive
O=C(NCc1ccccc1)c1nc[nH]c1C(=O)N1CCN(c2ccccc2)CC1	inconclusive: 89.1 µM [inhibitor, single point]
COc1ccc(OC)c(NC(=O)CN2CCc3ccccc3C2)c1	inconclusive: 89.1 µM [inhibitor, single point]
COc1ccc(Cl)cc1N1C(=O)/C(=C\c2sccc2C)N=C1SCC(=O)NC1CC1	inactive
COc1cc2c(cc1OC)C(SC)=NC(C)(C)C2	inactive
CCCCC(=Nc1ccc(N)cc1)C1=C(O)C(C(=O)OC)C(C)(C)CC1=O (configuration not stated)	active: 56.2 µM
Cc1cccc(N2CCN(Cc3nc(-c4ccccc4Cl)oc3C)CC2)n1	inconclusive: 50.1 µM [inhibitor, partial curve]
COc1ccccc1N1CCN(Cc2nc3ccsc3c(=O)[nH]2)CC1	inactive
CCOC(=O)c1cc(-c2ccc(C)cc2)n(CCC(=O)Nc2ccc(C(C)C)cc2)c1C	inactive
O=C(CN1CCCCCC1)Nc1ccc(Br)cc1	inactive
CCn1c(C)c(C)c2cc(C(=O)NCc3ccc(F)cc3)ccc21	inconclusive: 44.7 µM [inhibitor, partial curve]
COc1ccc(-n2cc(-c3ccccc3)c3c(Nc4ccc(OC)c(OC)c4)ncnc32)cc1	inactive
Cc1noc(C)c1C(=O)Nc1nc(-c2ccc(F)c(F)c2)cs1	inconclusive: 89.1 µM [inhibitor, single point]
COc1ccc(CCNC(=S)N2CCC(C(=O)c3ccc(F)cc3)CC2)cc1OC	inconclusive: 35.5 µM [inhibitor, partial curve]
Nc1nc(Sc2c([N+](=O)[O-])cc(C(F)(F)F)cc2[N+](=O)[O-])n[nH]1	inactive
O=C(CCC1COc2ccccc2O1)Nc1ncccc1O (configuration not stated)	inconclusive: 89.1 µM [inhibitor, single point]
